# According to publication PMC4336329 (PLoS ONE, 2015):
# The campaign covered roughly 310,000 compounds. About 2,200 (0.71%) showed an effect of 50% or more. The effect is printed as a negative number. This is one part of the list.
# Target: human ether-à-go-go-related gene (hERG) potassium channel (human, UniProt Q12809)
# Assay: primary screen, population patch clamp on CHO cells stably expressing hERG
# Chain of human ether-à-go-go-related gene (hERG) potassium channel (Q12809 whole entry, looked up): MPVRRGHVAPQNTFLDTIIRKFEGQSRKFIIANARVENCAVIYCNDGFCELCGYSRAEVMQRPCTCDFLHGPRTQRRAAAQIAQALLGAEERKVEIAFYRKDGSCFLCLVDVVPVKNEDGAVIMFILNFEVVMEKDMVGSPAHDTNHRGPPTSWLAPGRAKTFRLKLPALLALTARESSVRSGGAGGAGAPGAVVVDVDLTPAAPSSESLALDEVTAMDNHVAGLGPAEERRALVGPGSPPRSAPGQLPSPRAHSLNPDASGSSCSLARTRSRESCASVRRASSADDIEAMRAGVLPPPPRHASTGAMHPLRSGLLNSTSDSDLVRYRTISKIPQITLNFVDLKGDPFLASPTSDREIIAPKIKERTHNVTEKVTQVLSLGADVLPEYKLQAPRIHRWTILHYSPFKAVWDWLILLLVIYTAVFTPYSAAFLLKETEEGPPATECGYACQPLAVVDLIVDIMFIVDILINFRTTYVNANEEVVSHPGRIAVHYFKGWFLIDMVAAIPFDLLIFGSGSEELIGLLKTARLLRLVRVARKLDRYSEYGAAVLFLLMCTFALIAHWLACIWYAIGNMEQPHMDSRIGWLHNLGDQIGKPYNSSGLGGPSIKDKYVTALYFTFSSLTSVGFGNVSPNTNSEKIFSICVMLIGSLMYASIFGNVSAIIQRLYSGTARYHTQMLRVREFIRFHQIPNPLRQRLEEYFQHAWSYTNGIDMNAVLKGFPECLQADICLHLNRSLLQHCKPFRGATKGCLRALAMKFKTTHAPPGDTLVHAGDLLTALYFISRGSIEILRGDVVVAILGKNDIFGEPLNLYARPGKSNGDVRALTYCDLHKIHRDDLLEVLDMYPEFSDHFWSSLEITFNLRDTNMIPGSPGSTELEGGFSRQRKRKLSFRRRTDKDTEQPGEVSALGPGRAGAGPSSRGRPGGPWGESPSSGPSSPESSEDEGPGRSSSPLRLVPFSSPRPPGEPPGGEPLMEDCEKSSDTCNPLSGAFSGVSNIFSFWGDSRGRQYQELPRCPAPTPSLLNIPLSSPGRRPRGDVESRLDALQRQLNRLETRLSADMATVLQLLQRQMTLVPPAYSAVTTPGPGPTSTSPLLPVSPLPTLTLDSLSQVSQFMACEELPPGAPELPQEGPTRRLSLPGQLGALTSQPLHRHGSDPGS
row,Compound,"hERG current change (%, negative = inhibition) at 1uM"
1,O=C(NC(Cc1ccccc1)C(=O)O)OCc1ccccc1 (stereo not shown),8.76%
2,CCOC(=O)N1CCN(S(=O)(=O)c2cc([N+](=O)[O-])c(C)cc2C)CC1,1.12%
3,N#CC1=C(N)OC2=C(CC/C2=C\c2ccccc2)C1c1ccccc1 (stereo not shown),12%
4,Cc1ccnc(NC(=O)CCCOc2cc(=O)n(C)c3ccccc23)c1,11.2%
5,C=CCn1c(CNS(=O)(=O)c2ccc(Br)cc2)nnc1SC,2.53%
6,Cc1nc2cc(NC(=O)Nc3cccc([N+](=O)[O-])c3)ccc2n1C,12.8%
7,COc1ccc(-n2c(O)c(Cc3ccccc3)c(=O)n3nc(-c4ccccc4)c(=O)cc23)cc1,6.81%
8,Cc1cc(C)cc(N2C(=O)c3nccnc3C2=O)c1,9.67%
9,CC(C)N(C(=O)CSc1nnnn1C1CCCC1)C(C)C,5.61%
10,O=C(NC1CCCCC1)C1CCCN1C(=O)NCc1ccccc1 (stereo not shown),-3.68%
11,CC[n+]1c(/C=C2\C=C(C)CC(C)C2)sc2ccccc21.[I-] (stereo not shown),3.17%
12,O=C(Nc1nsc(-c2ccccc2)n1)c1ccc(F)cc1,-22%
13,Cc1ccc(S(=O)(=O)N2CCN=C2SCc2ccccc2)cc1,2.54%
14,C=CCc1ccccc1OCC(O)CN1CCN(C(=O)OCC)CC1.Cl (stereo not shown),9.86%
15,Cc1cc(C(=O)CCC(=O)N(C)CC(=O)Nc2ccccc2Br)c(C)s1,-1.36%
16,O=C(CN(Cc1ccco1)C(=O)c1ccc(N2CCCC2=O)cc1)Nc1ccccc1C(F)(F)F,-8.47%
17,N#CCCN(CCC#N)C(=O)c1ccc2c(c1)OCO2,6.47%
18,CNC(=O)c1cc2cc(Cc3ccccc3Cl)ccc2oc1=O,5.24%
19,O=S(=O)(Cc1ccc(Cl)cc1)N1CCCC1,-2.52%
20,Cc1ccc2cccc(OCc3ccc(Br)cc3)c2n1,10.2%
21,O=C(CS(=O)CC(=O)N(c1ccccc1)C(C(=O)NC1CCCCC1)c1ccco1)Nc1ccc(F)cc1 (stereo not shown),1.93%
22,CCCCn1c(O)c(N=NC(=O)c2ccncc2)c2cc(Br)ccc21,-30.4%

row,Compound,"hERG current change (%, negative = inhibition) at 1uM"
1,Cc1csc2c(C#N)c(=O)c3c(n12)CCC3,12.6%
2,O=C(C1=C[C@H](c2ccc(C(F)(F)F)cc2)C[C@H](OCCCCO)O1)N1CCN(Cc2ccc3c(c2)OCO3)CC1,-6.15%
3,Cc1cc(/C=C2\SC(=S)N(C)C2=O)c(C)n1-c1ccc(O)cc1,8.49%
4,Cc1cc(C)nc(SCC(=O)Nc2nccs2)n1,18.4%
5,CCOC(=O)CSC1=C(C#N)C(=O)NC2(CCCCC2)S1,12.2%
6,COc1ccccc1C(=O)N/C(=C/c1ccc(Br)cc1)C(=O)NCCCn1ccnc1,-84.8%
7,O=C(NCc1cccnc1)C1CCCN(S(=O)(=O)c2ccc(Br)cc2)C1 (stereo not shown),1.65%
8,O=C(O)C(=O)Cc1c[nH]c2ccccc12,14.7%
9,COc1ccccc1N1C(=O)CC1(C#N)c1ccc(OCc2ccccc2)cc1 (stereo not shown),9.46%
10,COc1ccc(S(=O)(=O)NCCSC(C)(C)C)c(Cl)c1Cl,2.25%
11,CN(c1ccccc1)S(=O)(=O)c1cc(C(=O)OCC(=O)N2CCN(C(=O)c3ccco3)CC2)ccc1Cl,-2.16%
12,O=C(NCc1ccccc1Cl)C1CCN(S(=O)(=O)N2CCCCC2)CC1,0.769%
13,CCn1nc(C)cc1C(=O)N1CCCC(CCC(=O)NCc2ccccc2F)C1 (stereo not shown),7.7%
14,Cc1cccc(C(=O)N(c2ccccn2)C(C)c2ccco2)c1 (stereo not shown),-0.169%
15,CCOCCOC(=O)c1ccc(NC(=O)c2cc(OC)c(OC)c(OC)c2Br)cc1,-0.647%
16,Cn1c(COc2ccc(Cl)cc2)nnc1SCC(=O)Nc1ccc2c(c1)CCC2,10.8%
17,CCOC(=O)N1CCN(S(=O)(=O)c2cc(Cl)ccc2Cl)CC1,5.43%
18,CC(/C=N/NC(=O)c1nnn(-c2nonc2N)c1C(C)C)=C\c1ccccc1,15.1%
19,CCCN1CCC(=O)N(CCSc2ccc(NC(C)=O)cc2)CC1,17%
20,CC(C)C[C@H]1C(=O)N2CCC[C@H]2[C@]2(O)O[C@](NC(=O)[C@@H]3C=C4c5cccc6[nH]cc(c56)C[C@H]4N(C)C3)(C(C)C)C(=O)N12,8.53%
21,COc1ccc(S(=O)(=O)NCC2CCCN(Cc3ccc(O)cc3)C2)cc1 (stereo not shown),-12.2%
